Data from the supplement of paper PMC12217912.
The list shows a part of the results. Sequences were assembled here from the parent chain. Inactive controls read about 0.05.

B1: TEV protease; numbered along this chain (parent)
chain: MGESLFKGPRDYNPISSSICHLTNESDGHTTSLYGIGFGPFIITNKHLFRRNNGTLVVQSLHGVFKVKDTTTLQQHLVDGRDMIIIRMPKDFPPFPQKLKFREPQREERICLVTTNFQTKSMSSMVSDTSCTFPSGDGIFWKHWIQTKDGQCGSPLVSTRDGFIVGIHSASNFTNTNNYFTSVPKNFMELLTNQEAQQWVSGWRLNADSVLWGGHKVFMVKPEEPFQPVKEATQL

Variants of: B1
Assay: raw area under fraction-flipped curve 0-4 h after induction (AUC4h, not background-subtracted), DNA-recorder readout of cleavage of the substrate (dimensionless); higher = more cleavage of the substrate by the protease variant
Conditions: temperature: 34 °C; time window: 0-4 h after rhamnose induction
Procedure: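 In vivo DNA recorder in E. coli TOP10(DE3) ΔrhaA at 34 °C. Each TEVp single-site mutant (parent TEVp 0) is paired with a single-site variant of the 7-mer TEVs (canonical ENLYFQ|S). The substrate sits between flexible linkers in a Bxb1-sfGFP-TEVs-SsrA fusion, so cleavage stabilises Bxb1 and speeds flipping of a recombination array, read by NGS. The value is the raw area under the fraction-flipped curve over 0-4 h after rhamnose induction (AUC4h), with ≥20 reads per time point. It is not background-subtracted; inactive controls average about 0.047.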
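Note: Bxb1 expression induced with 0.2% (w/v) L-rhamnose at OD600 near 0.5, cultures sampled hourly, flipped fraction per protease–substrate barcode pair counted by paired-end Illumina sequencing.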

Variant	area with substrate ENLYAQS	area with substrate ENLYEQS	area with substrate ENLYHQS	area with substrate ENLYKQS	area with substrate ENLYMQS	area with substrate ENLYNQS	area with substrate ENLYPQS	area with substrate ENLYQQS	area with substrate ENLYSQS	area with substrate ENLYTQS	area with substrate ENLYWQS	area with substrate ENLYYQS	area with substrate ENLYGQS	area with substrate ENLYIQS	area with substrate ENLYRQS	area with substrate ENLYVQS	area with substrate ENLYDQS	area with substrate ENLYLQS	area with substrate ENLYCQS
H47A	0.0568	0.0741	0.0462	0.0282	0.0592	0.0611	0.0852	0.0644	0.0669	0.0529	0.0452	0.0731	–	–	–	–	–	–	–
T176L	0.0576	0.0654	–	0.0578	0.0736	0.064	–	0.0671	0.0823	0.0689	0.0702	–	0.0777	0.0737	0.0823	0.0866	–	–	–
F133D	0.0895	0.0698	0.064	0.065	0.081	–	–	–	0.0748	0.0918	0.0811	–	–	0.113	0.0608	0.0847	0.063	–	–
F218S	0.0958	0.0617	0.07	0.0369	–	0.0576	0.0644	0.0686	0.0673	–	0.0665	0.0692	0.065	0.0906	0.0546	–	–	0.0773	–
V183C	0.0747	0.0564	–	0.0737	0.0921	0.0737	0.0679	0.0697	0.0602	–	0.0618	0.0639	0.0548	0.135	–	0.0963	0.0543	0.09	–
G37R	0.0657	0.0626	0.0565	0.0416	0.0642	0.0457	0.0811	0.0614	0.0676	–	0.0721	0.0503	0.0624	0.0558	0.0405	0.0769	0.0708	0.0683	0.0633
Q118N	0.0636	0.0678	0.0694	0.0678	0.0931	0.0853	0.116	–	0.0719	–	0.0818	0.0633	–	–	0.0666	0.101	0.068	0.0733	–
I19T	0.0834	–	–	0.182	–	0.0603	–	0.0694	0.0641	0.0928	0.0725	–	0.0708	0.112	0.0538	0.168	–	–	–
I36N	0.0608	0.055	0.0553	0.0282	0.0302	0.0489	0.0546	–	0.0542	–	0.0548	0.0456	0.0558	0.0804	0.0388	–	0.0491	0.0547	0.0585
G63M	0.0777	0.0526	0.0634	0.0584	–	0.0635	–	0.0586	0.0726	–	0.0702	–	0.07	0.104	0.0716	–	0.0578	–	0.0729
G63F	0.0686	0.058	0.07	0.0613	–	0.0712	0.0606	–	0.0566	0.107	0.0582	–	0.0592	0.116	0.0462	–	0.0742	–	–
P40A	0.032	0.0555	0.0736	0.0482	0.0764	–	0.0708	–	0.0802	–	0.0782	0.0786	0.0621	0.121	0.0587	0.129	0.0597	0.0898	0.119
Q105N	0.0604	0.0746	0.0688	0.0636	0.0824	0.0671	0.0751	0.0652	0.0763	0.0699	0.0872	0.0657	0.0669	0.147	0.0507	0.127	0.0592	–	0.0816
T181G	0.0659	0.0524	0.0588	0.0642	0.0573	0.0599	–	0.0373	0.0787	–	0.0699	0.0501	0.0548	–	–	–	–	0.0547	0.0719
F49H	0.037	–	0.0574	0.0533	0.0542	0.0623	0.0605	–	0.0612	–	0.057	0.045	–	0.0567	0.0599	0.0669	0.0531	0.0514	0.065
L61N	0.0625	0.105	0.0642	0.0174	0.0796	0.0734	0.086	–	–	–	–	–	0.0665	0.129	0.073	–	0.0665	–	–
S4E	0.09	0.0697	0.0747	0.0922	0.0958	0.0716	0.0742	–	0.0713	–	0.113	0.0591	–	0.126	0.0596	–	0.0496	–	–
S201P	0.0562	0.0628	0.0708	0.0525	0.0578	0.059	0.0766	0.0635	0.0548	–	0.0511	0.0602	0.0503	0.0566	0.0643	0.0583	0.052	–	–
G214V	0.0697	0.0572	–	0.0528	0.059	0.0622	–	0.0681	–	0.0751	0.0662	–	0.0538	0.0627	0.0499	0.104	0.065	–	–
H76E	0.077	0.0723	0.0631	0.0283	–	0.0643	0.064	0.0699	0.0481	–	0.0798	0.0409	–	–	–	0.0754	0.071	–	0.0724
E25A	0.0705	0.0671	0.0769	0.0514	0.0916	0.063	0.0657	0.0694	0.055	0.0819	0.0924	0.0575	–	0.143	0.0739	0.114	0.0598	0.0867	0.0906
Q194S	0.0697	–	0.0713	0.0647	–	0.0417	–	–	–	–	–	–	0.0699	–	–	–	0.0569	–	–
V113N	0.0558	0.0595	0.0468	–	0.0454	0.0583	–	0.0449	–	0.0192	–	0.0579	–	0.0748	0.0699	–	–	0.0683	–
V113H	0.0654	0.0708	0.0744	0.062	–	0.0719	0.0678	0.0575	–	0.0689	0.0557	0.0577	0.0611	–	0.0557	0.104	0.0492	–	–
M219D	0.0668	0.0597	0.0657	0.0464	0.0742	0.0725	0.0464	–	0.0604	0.0676	0.0843	0.0665	0.0633	0.0659	0.0744	0.053	0.061	–	–
